Results: the RNAGym collection of RNA variant scans (doi:10.1073/pnas.2313332121)
Variants at the background level are over-represented here.

B1: TPR 5TU (parent)
chain: GGAUCUUCUCGAUCUAACAAAAAAGACAAAUCUGCCACAAAGCUUGAGAGCAUCUUCGGAUGCAGAGGCGGCAGCCUUCGGUGGCGCGAUAGCGCCAACGUUCUCAACUAUGACACGCAAAACGCGUGCUCCGUUGAAUGGAGUUUAUCAUG

Variants of: B1
Experiment: polymerase ribozyme fitness, log enrichment relative to wild type (log ratio); higher = more active; in vitro selection for triplet polymerase activity
Method in brief: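 Both subunits of a heterodimeric triplet polymerase ribozyme were given their own mutant library, built by PCR and transcribed. Each library was annealed with a biotinylated primer, the partner subunit and triplets, incubated frozen at −7 °C, and its extended constructs gel-excised, captured on streptavidin beads and amplified by RT-PCR, all in one round done in triplicate. Fitness is the logarithm of genotype enrichment relative to wild-type enrichment, with replicates averaged by inverse-variance weighting. That logarithm is base 2, and Illumina-sequenced genotypes needed ≥10 input reads and ≥1 read per output.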

Variant	polymerase ribozyme fitness (log ratio)
U145C C149A	≤ -4.2
G143U G152A	-3.69
G140U G141C	-3.07
G141C G143C	≤ -4.2
A147U U148A	-2.81
U144G U145A	0.571
G143C U145G	-1.8
A150G	-0.734
A150U	1.3
G141U G143A	-2.79
U144C U145C	-0.39
G141A C149G	-4.13
U146C U151G	≤ -4.2
G141C A150G	-3.78
G140U	-2.62
G140C	-3.16
G140C U144G	-3.51
G141C U148A	≤ -4.2
G140A U151G	≤ -4.2
G140U U148G	≤ -4.2
